Results on 3 compounds are retold here after paper PMC11247499, “2,8-Disubstituted-1,5-naphthyridines as Dual Inhibitors of Plasmodium falciparum Phosphatidylinositol-4-kinase and Hemozoin Formation with In Vivo Efficacy” (Journal of Medicinal Chemistry, 2024).

Converted amounts (≈) assume the structure as drawn. Where two headings read alike, the source gives them in different places.

Data set [1] is described as follows: physchem. The conditions noted are these: pH 7.4.
A further data set can be described thus: pKa of piperidine N. The format is physicochemical.
For data set [2] the following is noted: human.
The nature of data set [3]: physchem.
Data set [4] has as its system P. falciparum Pf3D7 0087/N9. The following applies: in vivo.
Data set [5] in a line: In vitro microsomal stability, mouse. It is filed as in vitro ADME. The following applies: pH 7.4; mouse liver microsomes; read-out: microsomal CLint, app mouse.
The nature of data set [6]: Plasma protein binding, mouse. The conditions noted are these: read-out: PPB fu, mouse. It is filed as in vitro ADME.
Data set [7] is described as follows: Plasma protein binding, human. The format is in vitro ADME. The conditions noted are these: read-out: PPB fu, human.
For data set [8], the system named is liver stage P. falciparum NF54.
Data set [9] deals with P. falciparum Pf3D7 0087/N9. The experiment in a line: animal or person. The conditions noted are these: Plasmodium falciparum, in Mus musculus.

With `CC1(C)CC(Nc2ccnc3ccc(-c4ccc(C(F)(F)F)nc4)nc23)CCN1` (stereo not drawn) [Compound 25, N-(2,2-Dimethylpiperidin-4-yl)-6-[6-(trifluoromethyl)pyridin-3-yl]-1,5-naphthyridin-4-amine], the pH-dependent lipophilicity (logD) at 3 h in the data set “physchem [1]” worked out at 1.41. Besides, in the data set “pKa of piperidine N”, the “pKa of piperidine N” value was 8.98.
With `FC(F)(F)c1ccc(-c2ccc3nccc(NC4CCNCC4)c3n2)cn1` [Compound 17, N-Piperidin-4-yl-6-[6-(trifluoromethyl)pyridin-3-yl]-1,5-naphthyridin-4-amine], in the data set with P. falciparum 3D7, the “lag phase before the onset of action” value is listed as “did not show any delay”, the “log PRR” value worked out at 3.9 and the parasite clearance time entry is reported as “around 40 h”. In data set [2], the Vd was 9.4 L/kg and the clearance was found to be 0.042 L/h/kg. This compound showed a half-life in data set [2] (Terminal half-life) of 155 h. Besides, the concentration in solution in “physchem [3]” (solubility) was 200 µM (≈ 74.7 µg/mL). For the same compound, in the data set “physchem [3]” (pH 6.5), the concentration in solution (solubility) came to 200 µM (≈ 74.7 µg/mL). Moreover, the Kkill in data set [4] was found to be 0.0292 h⁻¹. In addition, in data set [5], the CLint scaled at 1 µM is less than 2.76 L/h/kg. In data set [6], the fraction unbound at 4 h, 5 µM was 0.3. Also, the fraction unbound at 4 h, 5 µM in [7] came out at 0.3. Besides, the “liver schizont activity at 1 μM” value in data set [8] is recorded as “no activity”. In addition, the logD at 3 h in the data set “physchem [1]” amounted to 0.81. In addition, a half-maximal response in data set [9] (EC50) required 0.0314 mg/L (≈ 0.0841 µM). The “pKa of piperidine N” value in “pKa of piperidine N” came to 9.42.
In the data set “physchem [3]”, `FC(F)(F)c1ccc(-c2ccc3nccc(NC4CCNC5(CC5)C4)c3n2)cn1` (stereo not drawn) [Compound 26, N-(4-Azaspiro[2.5]octan-7-yl)-6-[6-(trifluoromethyl)pyridin-3-yl]-1,5-naphthyridin-4-amine] came in with a solubility of 200 µM (≈ 79.9 µg/mL). Further, the logD at 3 h in the data set “physchem [1]” was 1.53. Moreover, the “pKa of piperidine N” value in the data set “pKa of piperidine N” amounted to 7.99.
